# Experimental data from the supplement of paper PMC8728848.
# The other results are listed elsewhere or left out.
# B1: F17aG (Escherichia coli), Q99003 (protein)
# chain: MTNFYKVFLAVFILVCCNISQAAVSFIGSTENDVGPSLGSYSRTHAMDNLPFVYDTRNKIGYQNANVWHISKGFCVGLDGKVDLPVVGSLDGQSIYGLTEEVGLLIWMGDTKYSRGTAMSGNSWENVFSGWCVGANTASTQGLSVRVTPVILKRNSSARYSVQKTSIGSIRMRPYNGSSAGSVQTTVNFSLNPFTLNDTVTSCRLLTPSAVNVSLAAISAGQLPSSGDEVVAGTTSLKLQCDAGVTVWATLTDATTPSNRSDILTLTGASTATGVGLRIYKNTDSTPLKFGPDSPVKGNENQWQLSTGTETSPSVRLYVKYVNTGEGINPGTVNGISTFTFSYQ
# Columns and labels:
# Experiment in all cases: glycan array binding signal (z-score within array); higher = stronger binding
# Details in all cases: glycan notation: IUPAC condensed, linker removed
# [1] = molecular target: Neu5Ac(a2-3)Gal(b1-4)GlcNAc(b1-3)Gal(b1-4)GlcNAc(b1-3)Gal(b1-4)GlcNAc
# In short: (§1)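 Glycan array binding is given as a within-array Z-score, which can be read as non-binding when negative. The arrays, 3228 of them, came from the Consortium for Functional Glycomics database and were retained only where the protein sequence was available. Z-scores were averaged across arrays of the same protein sequence at different concentrations or buffers and across linkers.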
# [2] = molecular target: Neu5Ac(a2-3)Gal(b1-4)GlcNAc(b1-3)Gal(b1-4)[Fuc(a1-3)]GlcNAc
# In short: as §1
# [3] = molecular target: Neu5Ac(a2-3)Gal(b1-4)GlcNAc(b1-3)GalNAc
# In short: as §1
# [4] = molecular target: Neu5Ac(a2-3)Gal(b1-4)GlcNAc(b1-6)[Gal(b1-3)]GalNAc
# In short: as §1
# [5] = molecular target: Neu5Ac(a2-3)Gal(b1-4)GlcNAc(b1-6)[Neu5Ac(a2-3)Gal(b1-3)]GalNAc
# In short: as §1
# [6] = molecular target: Neu5Ac(a2-3)Gal(b1-4)GlcNAc6S
# In short: as §1
# [7] = molecular target: Neu5Ac(a2-3)Gal(b1-4)[Fuc(a1-3)]GlcNAc
# In short: as §1
# [8] = molecular target: Neu5Ac(a2-3)Gal(b1-4)[Fuc(a1-3)]GlcNAc(b1-3)Gal
# In short: as §1
# [9] = molecular target: Neu5Ac(a2-3)Gal(b1-4)[Fuc(a1-3)]GlcNAc(b1-3)Gal(b1-4)GlcNAc
# In short: as §1
# [10] = molecular target: Neu5Ac(a2-3)Gal(b1-4)[Fuc(a1-3)]GlcNAc(b1-3)Gal(b1-4)[Fuc(a1-3)]GlcNAc(b1-3)Gal(b1-4)[Fuc(a1-3)]GlcNAc
# In short: as §1
# [11] = molecular target: Neu5Ac(a2-3)Gal(b1-4)[Fuc(a1-3)]GlcNAc(b1-3)GalNAc
# In short: as §1
# [12] = molecular target: Neu5Ac(a2-3)Gal(b1-4)[Fuc(a1-3)]GlcNAc(b1-6)[Gal(b1-3)]GalNAc
# In short: as §1
# [13] = molecular target: Neu5Ac(a2-3)Gal(b1-4)[Fuc(a1-3)]GlcNAc6S
# In short: as §1
# [14] = molecular target: Neu5Ac(a2-3)Gal6S(b1-4)GlcNAc
# In short: as §1
# [15] = molecular target: Neu5Ac(a2-3)Gal6S(b1-4)[Fuc(a1-3)]GlcNAc
# In short: as §1
# Neu5Ac(a2-3)GalNAc = molecular target: Neu5Ac(a2-3)GalNAc
# In short: as §1
# [16] = molecular target: Neu5Ac(a2-3)GalNAc(b1-4)GlcNAc
# In short: as §1
# [17] = molecular target: Neu5Ac(a2-3)[GalNAc(b1-4)]Gal(b1-4)Glc
# In short: as §1
# [18] = molecular target: Neu5Ac(a2-3)[GalNAc(b1-4)]Gal(b1-4)GlcNAc
# In short: as §1
# [19] = molecular target: Neu5Ac(a2-3)[GalNAc(b1-4)]Gal(b1-4)GlcNAc(b1-3)GalNAc
# In short: as §1
# [20] = molecular target: Neu5Ac(a2-3)[Neu5Ac(a2-6)]GalNAc
# In short: as §1
# Neu5Ac(a2-6)Gal = molecular target: Neu5Ac(a2-6)Gal
# In short: as §1
# [21] = molecular target: Neu5Ac(a2-6)Gal(b1-3)GlcNAc(b1-3)[Gal(b1-4)GlcNAc(b1-6)]Gal(b1-4)Glc
# In short: as §1
# Neu5Ac(a2-6)Gal(b1-4)Glc = molecular target: Neu5Ac(a2-6)Gal(b1-4)Glc
# In short: as §1
# [22] = molecular target: Neu5Ac(a2-6)Gal(b1-4)GlcNAc
# In short: as §1
# [23] = molecular target: Neu5Ac(a2-6)Gal(b1-4)GlcNAc(b1-2)Man(a1-3)Man(b1-4)GlcNAc(b1-4)GlcNAc
# In short: as §1
# [24] = molecular target: Neu5Ac(a2-6)Gal(b1-4)GlcNAc(b1-2)Man(a1-3)[Gal(b1-4)GlcNAc(b1-2)Man(a1-6)]Man(b1-4)GlcNAc(b1-4)GlcNAc
# In short: as §1
# [25] = molecular target: Neu5Ac(a2-6)Gal(b1-4)GlcNAc(b1-2)Man(a1-3)[GlcNAc(b1-2)Man(a1-6)]Man(b1-4)GlcNAc(b1-4)GlcNAc
# In short: as §1
# [26] = molecular target: Neu5Ac(a2-6)Gal(b1-4)GlcNAc(b1-2)Man(a1-3)[GlcNAc(b1-2)Man(b1-4)GlcNAc(b1-2)Man(a1-6)]Man(b1-4)GlcNAc(b1-4)GlcNAc
# In short: as §1
# [27] = molecular target: Neu5Ac(a2-6)Gal(b1-4)GlcNAc(b1-2)Man(a1-3)[Man(a1-6)]Man(b1-4)GlcNAc(b1-4)GlcNAc
# In short: as §1
# [28] = molecular target: Neu5Ac(a2-6)Gal(b1-4)GlcNAc(b1-2)Man(a1-3)[Neu5Ac(a2-6)Gal(b1-4)GlcNAc(b1-2)Man(a1-6)]Man(b1-4)GlcNAc(b1-4)GlcNAc
# In short: as §1
# [29] = molecular target: Neu5Ac(a2-6)Gal(b1-4)GlcNAc(b1-2)Man(a1-6)Man(b1-4)GlcNAc(b1-4)GlcNAc
# In short: as §1
# [30] = molecular target: Neu5Ac(a2-6)Gal(b1-4)GlcNAc(b1-2)Man(a1-6)[Gal(b1-4)GlcNAc(b1-2)Man(a1-3)]Man(b1-4)GlcNAc(b1-4)GlcNAc
# In short: as §1
# [31] = molecular target: Neu5Ac(a2-6)Gal(b1-4)GlcNAc(b1-2)Man(a1-6)[GlcNAc(b1-2)Man(a1-3)]Man(b1-4)GlcNAc(b1-4)GlcNAc
# In short: as §1
binder,measurement,setting,value
B1,glycan array binding signal (z-score),[1],-0.243
same,glycan array binding signal (z-score),[2],-0.241
same,glycan array binding signal (z-score),[3],-0.173
same,glycan array binding signal (z-score),[4],0.122
same,glycan array binding signal (z-score),[5],-0.082
same,glycan array binding signal (z-score),[6],-0.192
same,glycan array binding signal (z-score),[7],-0.248
same,glycan array binding signal (z-score),[8],-0.247
same,glycan array binding signal (z-score),[9],-0.214
same,glycan array binding signal (z-score),[10],-0.234
same,glycan array binding signal (z-score),[11],-0.119
same,glycan array binding signal (z-score),[12],-0.144
same,glycan array binding signal (z-score),[13],0.084
same,glycan array binding signal (z-score),[14],-0.233
same,glycan array binding signal (z-score),[15],-0.245
same,glycan array binding signal (z-score),Neu5Ac(a2-3)GalNAc,-0.032
same,glycan array binding signal (z-score),[16],-0.228
same,glycan array binding signal (z-score),[17],0.025
same,glycan array binding signal (z-score),[18],-0.241
same,glycan array binding signal (z-score),[19],-0.203
same,glycan array binding signal (z-score),[20],0.01
same,glycan array binding signal (z-score),Neu5Ac(a2-6)Gal,-0.237
same,glycan array binding signal (z-score),[21],-0.181
same,glycan array binding signal (z-score),Neu5Ac(a2-6)Gal(b1-4)Glc,-0.255
same,glycan array binding signal (z-score),[22],-0.158
same,glycan array binding signal (z-score),[23],-0.177
same,glycan array binding signal (z-score),[24],-0.179
same,glycan array binding signal (z-score),[25],-0.159
same,glycan array binding signal (z-score),[26],-0.141
same,glycan array binding signal (z-score),[27],-0.154
same,glycan array binding signal (z-score),[28],-0.153
same,glycan array binding signal (z-score),[29],-0.167
same,glycan array binding signal (z-score),[30],-0.147
same,glycan array binding signal (z-score),[31],-0.156
